The values below come from PMC12136788.

The labels stand for the following.
T1: UNK ZnF1-3 (human, UniProt Q9C0B0 31-174)
T1 sequence: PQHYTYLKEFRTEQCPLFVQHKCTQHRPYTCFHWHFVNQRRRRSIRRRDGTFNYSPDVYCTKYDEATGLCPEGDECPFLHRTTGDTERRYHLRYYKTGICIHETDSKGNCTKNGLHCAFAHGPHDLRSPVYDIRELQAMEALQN

B1: chr7:66561770:66561771:+_ENSMUSG00000025326_ENSMUST00000107537|mus_hu|FALSE|FALSE (ssRNA)
RNA: GGGAGUUCUACAGUCCGACGAUCGGUACAUAACAAACAGUUCUGUCUCAAUUAUGAAAAAAAUUAAUUAAAAUAAUCCUGAAAGACAUCCUUUUUCUCCCCCCAAUGAUUUGAAAGCUGCAUUUUUCCUGCCAAUUUCAAACACAACAGAGGAUUGAGCAUCA
B2: chr2:43450610:43450611:-_ENSG00000152518_ENST00000282388|hu_mus|motif|central (ssRNA)
RNA: GGGAGUUCUACAGUCCGACGAUCGUUAAAUAGUUUUUCAUAUUGAGUUGUGGUGCAGUGGUGCGGAUCAACUCAGAACAACGGAAAAUGAAGCACUUAUUUCCCAACAACUAUGAACUGAGCUCUGCCCAUAGCUUCCAGAGACAACAGAGGAUUGAGCAUCA
B3: chr3:179287964:179287965:+_ENSG00000136518_ENST00000429709|hu_hu|hu_hu_hu_mus_True|8_28 (ssRNA)
RNA: GGGAGUUCUACAGUCCGACGAUCCUUGAGUGGUGAGAUGGCCUCCAUGUUCUCCCUGGGCACGCGGAGGGCAUUGGUGUCUAUGUAGUAGGUGGGCCCGCCCUGCUUGCCUUUAUCACCAUCAAUCUCCAUUAAUGUACUUCCCAACAGAGGAUUGAGCAUCA
B4: chr6:52962840:52962841:+_ENSG00000112146_ENST00000323557|hu_hu|FALSE|FALSE (ssRNA)
RNA: GGGAGUUCUACAGUCCGACGAUCAUAAAUAUGCUUAAGCAACUUAAUUCCAACUUAAUUUCAAAACACCCCAGGAAUCAACUAUCCCUUUAAAUAAAAAAAAUAAUCAAUUUAUAUUCUUCUUAAAAGAACUCCAACAAUUUACAACAGAGGAUUGAGCAUCA
B5: 61655584_61693606_2132_CDS_ENSG00000171316_ENST00000423902|human|control|control (ssRNA)
RNA: GGGAGUUCUACAGUCCGACGAUCAGUCAUAUCCGGCACUGGUUUCUCUAGAAAGGGCUCCGACGGGGAAUGCUGAUGCACAGGCACUUUCUGCGGGGUGUUCUGGGGUGAUGGGUGGAGCUGUGCCCAAGGCUGGUGAUGAGGCAACAGAGGAUUGAGCAUCA
B6: chr5:37680062:37680063:+_ENSMUSG00000029121_ENSMUST00000031004|mus_hu|mus_mus_mus_hu_False|28_48 (ssRNA)
RNA: GGGAGUUCUACAGUCCGACGAUCUUUGGGUGUAGCUGGUACCUCGUACACAGGACCGUCAUACAUGCCCCUGGAAACCCCUUGCAACCCGAAAACCUUAUUCCUGAUCCUGACACGCUGGUACAGGUGCUCCGGGAACGCCUUCAACAGAGGAUUGAGCAUCA
B7: chr4:124789969:124789970:+_ENSMUSG00000028863_ENSMUST00000154689|mus_mus|FALSE|FALSE (ssRNA)
RNA: GGGAGUUCUACAGUCCGACGAUCAUAAACACACACAGCCUUCCUAGAUACACAAACACACACAGCCUUCCUAGAUACACAAACACAAACACACACACACACACACACACACACACACACACACACACACACACACAGAGCCUUCAACAGAGGAUUGAGCAUCA
B8: 22862260_22862380_787_3pUTR_ENSG00000150867_ENST00000376573|human|control|control (ssRNA)
RNA: GGGAGUUCUACAGUCCGACGAUCCACAGACAAACGGUGGCUGAAUACAUUUCUUGUAACUAUCACAUAUAUUUCAACUCCAUCAACAUUAAGCCGGUACAUGCCCAAGAACUGGGGAAGAAGGGUGAUCCCAUGACAUUCCACCAACAGAGGAUUGAGCAUCA
B9: chrX:71549400:71549401:+_ENSMUSG00000019087_ENSMUST00000019231|mus_hu|mus_mus_mus_hu_False|98_98 (ssRNA)
RNA: GGGAGUUCUACAGUCCGACGAUCGCAGUAGGAAGAGCAAACCUUUCCAGUCCAGUGCGCUGCAGGGUGGGAAAGCAACAACACGGACACCGUCCCACCCUCAACCCCCCCACUGGCACAGGGUCACACAAUCUGGGUCAAAGACAACAGAGGAUUGAGCAUCA
B10: chr12:4461766:4461767:+_ENSG00000078237_ENST00000179259|hu_hu|FALSE|FALSE (ssRNA)
RNA: GGGAGUUCUACAGUCCGACGAUCCUGUAGGUUCAUACAAAUACACUGAACCGUUGGUUUAACUUCUCUUCCUUCCUCAAAGUUUAUGAUAAAGAGACUCAUCCCUGUAUUGGGAGUGACUGACAUAAGUUCAGAUCUGCUCAGCAACAGAGGAUUGAGCAUCA
B11: chr12:42180722:42180723:-_ENSMUSG00000036295_ENSMUST00000043884|mus_hu|motif|central (ssRNA)
RNA: GGGAGUUCUACAGUCCGACGAUCCUGUAGGAGAAGAAUCUGUGUGUUAGCUGGCAAUCUGGCUGGGAAAGUUAAAAGACCGGAAUCAUUACAAUCCACUGUAGAUGCUUCCAUAUAAAUGGAUCUGGGUGUAAACCAAGGCCUCAACAGAGGAUUGAGCAUCA
B12: chr2:24222969:24222970:+_ENSG00000173960_ENST00000309033|hu_hu|motif|central (ssRNA)
RNA: GGGAGUUCUACAGUCCGACGAUCAUUCUAAACAAUACAGCUAUUUAAUAUAUCUUGAUAACUGGUAUUUGAAAAUAAGUCGGUUUUUCUGGGUAGUCUUUUGGAGAAAGUGCACUGAAUAUAGUUUCCAGUCAUAUGCUACUUCAACAGAGGAUUGAGCAUCA
B13: chr4:106720802:106720803:+_ENSMUSG00000061887_ENSMUST00000030367|mus_mus|motif|central (ssRNA)
RNA: GGGAGUUCUACAGUCCGACGAUCAGUUUUGUCCUUCAUGUUUUACGGAAUAAAAGUUUGGCCUUUUUAUUGCAUGAAACGGAAAUUGGGGAAGGUGGGGGAGUGAAUGGGAGGGUGGAGGGAGCAGGAGAUGCCCUCCCCCAGCAACAGAGGAUUGAGCAUCA
B14: chr17:87833181:87833182:-_ENSMUSG00000036438_ENSMUST00000040440|perfect_dup|motif|central (ssRNA)
RNA: GGGAGUUCUACAGUCCGACGAUCCGGGCUUAGAUAUAGCCAGAGUAAGCCACAUGCAACAUGUUACUUCAUCAAUUUUCGGAAAUAAGGUUUAAGGACAAUGACAGUAAGAUAAGGGAAGAAAACAUGGAGGAAUGAAGUCCUCAACAGAGGAUUGAGCAUCA
B15: chr14:56483160:56483161:+_ENSMUSG00000075592_ENSMUST00000168479|mus_hu|motif|central (ssRNA)
RNA: GGGAGUUCUACAGUCCGACGAUCAGCCUGUAGUUGGGGUGUAGAGGUCAAGGGUGGCCCUAUCUGUGGGAGAUCCGAGCGGACUUUGUCUUUUACAUCUGAGCUCCCAGGGACCACCAAUAAACUCGUAACUUUUGGGGAAAUCAACAGAGGAUUGAGCAUCA
B16: chr11:115359427:115359428:-_ENSMUSG00000020737_ENSMUST00000021083|mus_mus|FALSE|FALSE (ssRNA)
RNA: GGGAGUUCUACAGUCCGACGAUCUCCCAAGCAUGGGACAACAAACAGACAGACAGAAGGACAGAGUUCCAACACAAGAAGCUAACCCAAGACCAGGCUGGACUUGCCGCCAGGGGGGUUUCUCCUGGAUGGCACUGGGGCUGGCAACAGAGGAUUGAGCAUCA
B17: chr7:27831639:27831640:+_ENSG00000106052_ENST00000265393|hu_hu|FALSE|FALSE (ssRNA)
RNA: GGGAGUUCUACAGUCCGACGAUCAACUUCUUGCCGAGUUGCCUGAACCUGUUCCUCUGCUUUACGAAGUUGCUCCUUUAAAAAACAAGUAUCUUCUUUACUUGAGGUUGUAAGCAGGAAAGUUCUUUGCAGAUUUUCCUUUUCCAACAGAGGAUUGAGCAUCA
B18: chr11:4127340:4127341:+_ENSG00000167325_ENST00000300738|hu_mus|hu_hu_hu_mus_False|38_78 (ssRNA)
RNA: GGGAGUUCUACAGUCCGACGAUCGGCAUAGUCAGGGUGCUUCGUGGUCAAGGUCGCAGCUGUUUCAGCAGCCAGGGUGUCCAGUUCCACUGUGGUGACCCCACUGUAUAGGCCUUGGAUUACUUUCAUGGUGAUCUGAGCAGGCAACAGAGGAUUGAGCAUCA
B19: chr7:97319096:97319097:+_ENSMUSG00000039361_ENSMUST00000049537|mus_mus|motif|central (ssRNA)
RNA: GGGAGUUCUACAGUCCGACGAUCAUCUUUGAAGAGGAGCAUGAAGGCAGCAUUUAUUACCCCAUUUGUAAGUUCAUUACGGUUAACAUUAAAAUCAAGAAGUGCAUCCAUUUGAUUUUGGAUAAUUGGUACAGUUUUUAAGAGCAACAGAGGAUUGAGCAUCA
B20: 101371430_101371658_3074_CDS_ENSG00000066422_ENST00000312938|human|control|control (ssRNA)
RNA: GGGAGUUCUACAGUCCGACGAUCUCUUCCUUUCUUCCCAUGGGUAGCUUUCUUUACAUGCCUUCUGAACAAAGCUUUUUCAUAAAAUUCUUUGCCACAUAUAUUACACCUAUAAGGCUCAGUGACAGAAUGAGACUUCACAUGCAACAGAGGAUUGAGCAUCA
B21: chr13:100204638:100204639:-_ENSMUSG00000052727_ENSMUST00000064762|mus_mus|FALSE|FALSE (ssRNA)
RNA: GGGAGUUCUACAGUCCGACGAUCGGGGGUGGGCACCUGGCCAGUGAGAUCUUUUUGGGUGGCCAGUGGCUGCUUUAGGAAAUCUAGAUGUUUGAGUUUCUCCAGUCCUUCUAGGAUGUUGUACUGGGUACUGUUUCCGGGAAACAACAGAGGAUUGAGCAUCA
B22: chr2:131764077:131764078:+_ENSMUSG00000079037_ENSMUST00000091288|mus_mus|FALSE|FALSE (ssRNA)
RNA: GGGAGUUCUACAGUCCGACGAUCAUACAUGCAAAGUUACAAAUAUAGAAAACGUGAAGUACAUGCAGAUUCAAAGACCAGCUAGGGGUCUGCUUUGGAAUCCUACGGAACUGAGUGCACGCUGAAAGCCCAAGGGUCACACGGCAACAGAGGAUUGAGCAUCA

This is one part of the list.

In this experiment the target is T1, UNK ZnF1-3. Description: nsRBNS (natural sequence RNA bind-n-seq); RBNS binding buffer (assumed for nsRBNS): 25 mM Tris pH 7.5, 150 mM KCl, 3 mM MgCl2, 0.01% Triton X-100, 500 ug/ml BSA, 20 U/ml SUPERase-In, 4 C; UNK is unkempt and MSI1 is Musashi-1; names of the RNAs are library labels; protein concentration not given here; high values mean tight binding.
B1: the binding signal turned out to be 2.1 enrichment R. The value for B2 was 1.33 enrichment R; that for B3 was 0.797 enrichment R; that for B4 was 0.613 enrichment R. B5 had a binding signal of 2.38 enrichment R. The figure for B6 is 0.789 enrichment R; for B7 it is 2.49 enrichment R; for B8 it is 1.27 enrichment R. As to B9, the binding signal amounted to 0.737 enrichment R. The figure for B10 is 1.03 enrichment R. The molecule B11 returned a binding signal of 1.34 enrichment R. The value for B12 was 1 enrichment R; that for B13 was 0.937 enrichment R. The figure for B14 is 2.55 enrichment R. The figure for B15 is 1.01 enrichment R; for B16 it is 1.49 enrichment R.

In the case of B17, the binding signal worked out at 0.34 enrichment R. The molecule B18 returned a binding signal of 0.936 enrichment R. The value for B19 was 2.12 enrichment R; that for B20 was 1.1 enrichment R. The figure for B21 is 0.675 enrichment R; for B22 it is 0.965 enrichment R.
